This experiment deals with OVCAR8. Briefly: cell count relative to DMSO vehicle (fold change); OVCAR8 is a high-grade serous ovarian cancer line and CX-5461 an RNA polymerase I inhibitor; higher = more surviving senescent cells (less killing). As to conditions: senescence inducer: CX-5461 3 µM 48 h, then 6 d recovery (CX senescent), exposure time 24 h.

± gives the standard deviation of the averaged measurements. The list shows a part of the results.

`Cc1nc[nH]c1CN1CCN(C(=O)N[C@@H](CC(C)C)C(=O)O)[C@@H](Cc2ccccc2)C1=O`: the cell count by setting is: (compound dose 1 µM) 1.09 ± 0.27; (compound dose 5 µM) 0.924 ± 0.19.

The record behind these values is the supplement of paper PMC12462457.
